Assay results from the supplement of paper PMC7826260.
The other results are listed elsewhere or left out. Cleavage of a single-stranded DNA pool by Rep nickase domains was read by sequencing (1 h at 37 °C, 3 µM enzyme); the outer parts of the 90-letter strands are left off. Uncut reads are compared with the no-enzyme pool on a log2 scale; strong cutting gives strongly negative numbers. There is no active / inactive call. Shares of all reads are compared, so uncut sequences can rise above 0 when many others are cut.

Assays:
Assay in all cases: uncleaved DNA left, log2 of reads against the no-enzyme library (log2 ratio); higher = less cleavage (more negative = more Rep cleavage of the k-mer); sequences stand for … in CTCGTCCG…ACCGGAGA
[1] = system: T1, Rep nickase domain of Muscovy duck circovirus
T1 sequence (Rep 1-111, printed without the tag): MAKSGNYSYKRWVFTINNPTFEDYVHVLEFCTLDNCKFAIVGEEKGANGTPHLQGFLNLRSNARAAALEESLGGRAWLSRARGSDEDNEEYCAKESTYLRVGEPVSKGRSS
Method: (§1)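 A pool of 90-nt single-stranded DNAs with seven random bases just before the constant AC of the nick site (name = the seven bases) was cut by 3 µM recombinant His6-SUMO-tagged Rep nickase domain (300 nM DNA, 50 mM HEPES pH 8.0, 50 mM NaCl, 1 mM MnCl2, 1 h, 37 °C, three replicates). Uncut DNA was amplified and sequenced.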

[2] = system: T2, Rep nickase domain of banana bunchy top virus
T2 sequence (Rep 1-94, printed without the tag): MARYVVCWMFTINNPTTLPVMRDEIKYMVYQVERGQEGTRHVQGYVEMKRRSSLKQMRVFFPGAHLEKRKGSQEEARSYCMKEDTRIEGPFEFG
Method: as §1

[3] = system: T3, Rep nickase domain of cabbage leaf curl virus
T3 sequence (Rep 1-116, printed without the tag): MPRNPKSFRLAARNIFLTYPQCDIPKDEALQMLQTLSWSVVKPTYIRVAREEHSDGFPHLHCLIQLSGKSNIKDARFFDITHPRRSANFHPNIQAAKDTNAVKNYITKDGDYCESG
Method: as §1

[4] = system: T4, Rep nickase domain of chickpea chlorotic dwarf virus
T4 sequence (Rep 1-124, printed without the tag): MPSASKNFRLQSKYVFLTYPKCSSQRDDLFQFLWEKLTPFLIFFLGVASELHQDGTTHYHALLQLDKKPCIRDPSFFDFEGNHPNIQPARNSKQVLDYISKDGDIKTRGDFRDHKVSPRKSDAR
Method: as §1

[5] = system: T5, Rep nickase domain of faba bean necrotic yellows virus
T5 sequence (Rep 1-98, printed without the tag): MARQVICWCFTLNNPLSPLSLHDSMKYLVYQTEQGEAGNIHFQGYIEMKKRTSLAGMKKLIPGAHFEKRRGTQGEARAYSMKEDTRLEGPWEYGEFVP
Method: as §1

[6] = system: T6, Rep nickase domain of maize striate mosaic virus
T6 sequence (Rep 1-117, printed without the tag): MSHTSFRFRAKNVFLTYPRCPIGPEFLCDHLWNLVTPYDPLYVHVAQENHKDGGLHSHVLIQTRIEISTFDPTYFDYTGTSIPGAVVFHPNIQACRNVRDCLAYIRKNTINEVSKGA
Method: as §1

[7] = system: T7, Rep nickase domain of porcine circovirus 2
T7 sequence (Rep 2-116, printed without the tag): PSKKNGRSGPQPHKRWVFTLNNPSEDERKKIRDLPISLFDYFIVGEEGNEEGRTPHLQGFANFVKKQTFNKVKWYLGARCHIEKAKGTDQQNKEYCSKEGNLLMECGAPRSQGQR
Method: as §1

[8] = system: T8, Rep nickase domain of tomato golden mosaic virus
T8 sequence (Rep 1-124, printed without the tag): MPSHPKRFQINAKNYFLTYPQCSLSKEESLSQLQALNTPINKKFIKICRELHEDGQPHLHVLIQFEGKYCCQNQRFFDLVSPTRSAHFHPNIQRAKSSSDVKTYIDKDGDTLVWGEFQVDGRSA
Method: as §1

[9] = system: T9, Rep nickase domain of tomato yellow leaf curl virus
T9 sequence (Rep 1-136, printed without the tag): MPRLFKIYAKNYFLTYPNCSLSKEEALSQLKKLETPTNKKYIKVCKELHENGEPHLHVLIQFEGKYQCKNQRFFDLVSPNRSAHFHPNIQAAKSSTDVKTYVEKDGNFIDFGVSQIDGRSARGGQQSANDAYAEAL
Method: as §1

[10] = system: T10, Rep nickase domain of wheat dwarf virus
T10 sequence (Rep 1-137, printed without the tag): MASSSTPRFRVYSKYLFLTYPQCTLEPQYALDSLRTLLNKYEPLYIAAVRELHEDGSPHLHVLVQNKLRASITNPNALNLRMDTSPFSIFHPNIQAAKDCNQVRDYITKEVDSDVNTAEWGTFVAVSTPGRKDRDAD
Method: as §1

Sequence | uncleaved DNA left (log2) [1] | uncleaved DNA left (log2) [2] | uncleaved DNA left (log2) [3] | uncleaved DNA left (log2) [4] | uncleaved DNA left (log2) [5] | uncleaved DNA left (log2) [6] | uncleaved DNA left (log2) [7] | uncleaved DNA left (log2) [8] | uncleaved DNA left (log2) [9] | uncleaved DNA left (log2) [10]
TCAGCAA | -0.106 | 0.0623 | -0.0904 | -0.478 | -0.11 | -0.955 | -0.0465 | 0.0453 | -0.0244 | -0.0684
TCAGGTT | -0.0138 | -0.136 | 0.266 | 1.13 | -0.0517 | 1.78 | 0.0647 | 0.0527 | -0.222 | -0.0238
GGTCGTC | 0.0974 | 0.0425 | 0.513 | 1.12 | -0.0546 | 1.67 | 0.0431 | -0.017 | -0.023 | 0.0642
CTGTATT | -3.36 | -3.04 | -0.932 | -2.71 | -2.8 | -0.471 | -3.54 | -0.49 | 0.0829 | -0.865
AGCCCAT | -0.017 | 0.0481 | 0.49 | 0.957 | 0.00417 | 1.12 | 0.0308 | 0.112 | 0.054 | 0.166
TTACAGC | -0.0264 | -0.177 | -0.487 | -1.6 | -0.0695 | -1.13 | 0.0828 | -0.278 | -0.0374 | -0.113
CTACTTA | 0.027 | -0.0693 | -0.0528 | -1.96 | 0.0461 | -0.584 | -0.176 | -0.107 | -0.115 | -0.0126
CGACCTG | 0.00515 | 0.0285 | 0.0631 | 0.671 | 0.0877 | 1.72 | 0.0112 | 0.0189 | -0.00459 | 0.0665
ACCCTTA | 0.0114 | -0.0753 | -0.0571 | -0.762 | 0.106 | -0.191 | -0.122 | 0.0697 | -0.124 | -0.0237
TTTGTCC | -0.14 | -0.161 | 0.011 | -0.611 | -0.0582 | -0.717 | -0.223 | -0.17 | -0.051 | -0.0755
TCTCTTC | -0.136 | -0.198 | 0.173 | -0.393 | -0.149 | -0.527 | -0.0945 | -0.156 | -0.227 | -0.0575
GTCTTTA | -0.0606 | -0.00318 | 0.26 | 0.775 | -0.0229 | 1.66 | -0.0583 | 0.069 | -0.0784 | -0.0602
GGCGGGT | 0.121 | -0.0037 | 0.291 | 0.746 | -0.0278 | 1.49 | 0.113 | -0.0463 | -0.0621 | -0.0172
GAGGCAA | -0.00612 | 0.064 | 0.765 | 1.8 | -0.000266 | 2 | 0.0838 | 0.0768 | 0.0579 | 0.132
AGGACAG | 0.113 | 0.104 | 0.67 | 1.85 | -0.0654 | 2.1 | 0.234 | 0.0949 | 0.104 | 0.171
TTCTTTC | -0.0237 | -0.125 | 0.197 | -0.275 | 0.0576 | -0.533 | -0.0687 | -0.107 | -0.134 | 0.00496
TGTTCCC | -0.0452 | 0.0465 | 0.222 | 0.36 | -0.0753 | 0.926 | -0.279 | -0.184 | -0.0227 | -0.0435
TATTGCG | -0.266 | -0.14 | 0.457 | 1.09 | -0.0355 | 1.97 | 0.0314 | -0.193 | -0.348 | -0.0683
GATGGTG | -0.0692 | 0.0256 | -0.474 | -0.361 | 0.0503 | -0.757 | 0.0863 | 0.0254 | -0.154 | -0.116
GAATAAT | -2.73 | -0.637 | -2.93 | -2.79 | -0.0968 | -2.08 | -2.95 | -2.81 | -0.186 | -2.87
TGCTAGT | -1.06 | -0.104 | -0.23 | -0.377 | 0.0449 | -0.808 | -2.84 | 0.0459 | 0.145 | -0.0197
TTTCGAT | 0.0772 | -0.0206 | 0.19 | -0.0743 | -0.0145 | -0.0346 | -0.0474 | -0.0521 | -0.0168 | -0.046
CTTCAAC | -0.147 | -0.054 | -0.0967 | -1.71 | -0.057 | -0.842 | -0.0692 | -0.0488 | -0.0607 | -0.037
CCGTGCC | 0.152 | 0.0671 | -0.0989 | -0.318 | 0.084 | -0.776 | 0.0998 | 0.108 | 0.0329 | 0.0262
ACTGGGT | 0.00127 | -0.0215 | -0.172 | 0.313 | -0.0791 | 0.0583 | 0.0772 | 0.0768 | -0.0534 | -0.0983
GGATCCC | 0.102 | 0.154 | 0.482 | 1.2 | 0.148 | 1.56 | -0.0422 | 0.00627 | 0.148 | 0.264
TGAGCAA | 0.0264 | -0.00905 | 0.0441 | 0.235 | 0.0316 | -0.1 | -0.743 | -0.0499 | -0.00714 | 0.0149
TGGTAAC | 0.101 | 0.0537 | 0.394 | 0.765 | -0.208 | 1.75 | 0.106 | 0.128 | 0.062 | 0.112
CGGTCAT | -0.0563 | 0.0261 | 0.881 | 1.84 | 0.023 | 2.23 | 0.191 | -0.113 | 0.0705 | 0.0863
TAAGTTG | 0.168 | 0.00462 | 0.198 | 0.694 | 0.109 | 0.778 | 0.147 | 0.0491 | -0.0806 | 0.00676
